This note sets out measurements from article PMC3139598.

Holding throughout (assay): co-IP; N2a cells co-transfected with pcDNA3-APP695 and FLAG-X11L proteins, FLAG-X11 or FLAG-X11L2; lysis in HBS-T (10 mM HEPES pH 7.6, 150 mM NaCl, 5 mM EDTA, 0.5% Triton X-100); immunoprecipitation with anti-FLAG antibody at 4°C for 2 h, protein G-Sepharose; blot with anti-APP/C and anti-FLAG
Assay [1] concerns the target T1, FLAG-X11 (human X11) (human) (UniProt Q02410).
T1 sequence: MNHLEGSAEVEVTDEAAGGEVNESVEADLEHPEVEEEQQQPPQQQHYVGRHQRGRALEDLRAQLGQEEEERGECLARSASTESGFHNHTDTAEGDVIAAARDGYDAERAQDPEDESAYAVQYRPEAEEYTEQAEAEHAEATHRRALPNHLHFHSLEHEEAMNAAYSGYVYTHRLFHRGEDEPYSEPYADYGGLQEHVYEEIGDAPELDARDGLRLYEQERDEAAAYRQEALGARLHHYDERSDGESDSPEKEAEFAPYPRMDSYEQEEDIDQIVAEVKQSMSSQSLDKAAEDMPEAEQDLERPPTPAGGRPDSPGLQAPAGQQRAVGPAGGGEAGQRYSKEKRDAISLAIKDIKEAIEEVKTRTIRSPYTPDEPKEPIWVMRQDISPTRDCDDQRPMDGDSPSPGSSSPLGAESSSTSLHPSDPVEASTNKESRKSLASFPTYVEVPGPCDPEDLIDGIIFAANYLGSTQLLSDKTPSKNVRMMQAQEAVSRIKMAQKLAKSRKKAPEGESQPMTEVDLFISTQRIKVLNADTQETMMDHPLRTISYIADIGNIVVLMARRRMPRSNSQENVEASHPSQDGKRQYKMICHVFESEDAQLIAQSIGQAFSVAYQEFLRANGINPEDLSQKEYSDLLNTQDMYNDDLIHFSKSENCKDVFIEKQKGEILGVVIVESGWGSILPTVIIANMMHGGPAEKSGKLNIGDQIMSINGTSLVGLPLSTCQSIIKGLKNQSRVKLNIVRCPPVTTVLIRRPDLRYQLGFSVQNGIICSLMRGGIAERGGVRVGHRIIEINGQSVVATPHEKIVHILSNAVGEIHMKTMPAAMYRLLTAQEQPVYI

Assay [2] deals with T2, FLAG-X11L (human X11-like, entire) (human) (UniProt Q99767).
T2 sequence: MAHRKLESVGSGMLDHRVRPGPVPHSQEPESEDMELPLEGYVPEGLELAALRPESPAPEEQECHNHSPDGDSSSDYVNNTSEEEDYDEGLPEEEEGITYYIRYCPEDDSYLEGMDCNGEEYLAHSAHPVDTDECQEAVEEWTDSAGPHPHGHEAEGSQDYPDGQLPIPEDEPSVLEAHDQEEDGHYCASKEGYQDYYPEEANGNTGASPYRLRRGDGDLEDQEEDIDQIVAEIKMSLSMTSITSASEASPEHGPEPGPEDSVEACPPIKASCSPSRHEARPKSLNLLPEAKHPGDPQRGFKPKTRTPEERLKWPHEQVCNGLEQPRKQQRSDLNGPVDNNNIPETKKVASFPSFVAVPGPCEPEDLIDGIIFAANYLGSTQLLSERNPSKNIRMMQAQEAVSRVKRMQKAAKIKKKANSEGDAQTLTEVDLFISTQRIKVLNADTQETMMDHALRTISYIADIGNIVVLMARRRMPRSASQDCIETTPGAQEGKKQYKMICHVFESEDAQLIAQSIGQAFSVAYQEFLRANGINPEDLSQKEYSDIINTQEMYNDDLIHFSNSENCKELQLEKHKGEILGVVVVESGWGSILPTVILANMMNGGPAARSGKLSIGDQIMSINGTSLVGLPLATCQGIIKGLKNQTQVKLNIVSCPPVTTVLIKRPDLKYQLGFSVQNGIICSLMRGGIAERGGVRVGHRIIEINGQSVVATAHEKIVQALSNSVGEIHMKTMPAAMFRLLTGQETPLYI

The target of assay [3] is T3, FLAG-X11L F520V (Phe to Val mutation at amino acid 520) (human) (UniProt Q99767).
T3 sequence: T2 sequence with F520V

Assay [4] deals with T4, FLAG-X11L-C (carboxyl-terminal amino acids 556 to 749) (human) (UniProt Q99767).
T4 sequence: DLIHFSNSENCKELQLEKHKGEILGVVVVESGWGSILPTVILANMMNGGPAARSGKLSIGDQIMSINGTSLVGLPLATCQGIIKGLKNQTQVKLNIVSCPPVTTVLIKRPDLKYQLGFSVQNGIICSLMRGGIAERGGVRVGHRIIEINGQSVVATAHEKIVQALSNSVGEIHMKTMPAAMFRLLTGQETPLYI

Assay [5] has as its target T5, FLAG-X11L-PTB (amino acids 369 to 555) (human) (UniProt Q99767).
T5 sequence: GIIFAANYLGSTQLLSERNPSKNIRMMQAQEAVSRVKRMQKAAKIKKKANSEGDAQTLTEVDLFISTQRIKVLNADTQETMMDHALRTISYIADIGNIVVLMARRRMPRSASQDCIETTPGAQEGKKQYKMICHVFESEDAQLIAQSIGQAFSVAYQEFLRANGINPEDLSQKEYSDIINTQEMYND

In assay [6] the target is T6, FLAG-X11L-ΔPTB (deletion of amino acids 369 to 555) (human) (UniProt Q99767).
T6 sequence: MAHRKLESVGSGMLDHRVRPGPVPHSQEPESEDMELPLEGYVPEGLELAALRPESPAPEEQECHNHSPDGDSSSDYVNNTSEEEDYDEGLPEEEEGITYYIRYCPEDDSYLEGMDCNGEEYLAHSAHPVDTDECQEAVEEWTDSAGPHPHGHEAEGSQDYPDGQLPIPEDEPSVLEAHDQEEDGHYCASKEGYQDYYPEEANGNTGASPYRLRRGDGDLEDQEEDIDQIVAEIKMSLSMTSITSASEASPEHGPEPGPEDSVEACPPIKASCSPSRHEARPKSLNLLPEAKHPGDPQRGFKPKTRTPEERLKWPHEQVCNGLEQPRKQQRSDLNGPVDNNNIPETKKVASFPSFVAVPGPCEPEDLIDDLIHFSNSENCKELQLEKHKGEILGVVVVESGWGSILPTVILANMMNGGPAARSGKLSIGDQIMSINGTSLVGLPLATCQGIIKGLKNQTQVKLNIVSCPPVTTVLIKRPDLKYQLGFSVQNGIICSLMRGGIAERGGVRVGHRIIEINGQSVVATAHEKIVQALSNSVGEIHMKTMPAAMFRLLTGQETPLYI

Assay [7] deals with T7, FLAG-X11L2 (human X11L2) (human) (UniProt O96018).
T7 sequence: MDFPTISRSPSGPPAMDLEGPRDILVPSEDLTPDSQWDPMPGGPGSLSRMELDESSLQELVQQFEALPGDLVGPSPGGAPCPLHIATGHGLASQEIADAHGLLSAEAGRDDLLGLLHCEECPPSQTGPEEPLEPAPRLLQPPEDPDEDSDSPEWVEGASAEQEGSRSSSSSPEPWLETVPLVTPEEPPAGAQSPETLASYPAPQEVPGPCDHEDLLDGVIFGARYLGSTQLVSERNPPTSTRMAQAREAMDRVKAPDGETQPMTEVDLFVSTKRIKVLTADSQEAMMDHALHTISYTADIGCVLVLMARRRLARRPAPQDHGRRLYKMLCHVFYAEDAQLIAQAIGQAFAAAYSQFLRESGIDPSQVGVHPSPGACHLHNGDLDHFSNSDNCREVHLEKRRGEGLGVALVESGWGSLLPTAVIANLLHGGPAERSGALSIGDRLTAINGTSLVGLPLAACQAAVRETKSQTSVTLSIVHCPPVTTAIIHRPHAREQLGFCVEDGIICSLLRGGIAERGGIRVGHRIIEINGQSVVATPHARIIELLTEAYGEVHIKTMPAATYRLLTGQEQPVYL

Where a chain is given by its changes, count along the chain named. No constants are given. Whether binding was seen depends on the method and setting. Binding seen in cells or lysates may run through a third protein. Some entries that bind do so weakly or less than the wild type. Sequences can lack the tags named with a protein.

As for “amyloid β-protein precursor APP695 (untagged, from pcDNA3-APP695) (from UniProt P05067-4 18-695)”, the binding result in assay [1] is reported as “binds”; in assay [2] it was “binds”; in assay [3], “no binding”; in assay [4], “no binding”; in assay [5], “binds”; in assay [6] it was “no binding”. In assay [7], the binding entry was “binds”.
